About 14,000 (4.5%) of roughly 310,000 compounds showed an effect of 50% or more. The effect is printed as a negative number. This is one part of the list.
biological target: human ether-à-go-go-related gene (hERG) potassium channel (human, UniProt Q12809); assay: primary screen, population patch clamp on CHO cells stably expressing hERG
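Also: peak tail current of the secondary pulse compared with the same well before compound.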

Chain of human ether-à-go-go-related gene (hERG) potassium channel (Q12809 whole entry, looked up): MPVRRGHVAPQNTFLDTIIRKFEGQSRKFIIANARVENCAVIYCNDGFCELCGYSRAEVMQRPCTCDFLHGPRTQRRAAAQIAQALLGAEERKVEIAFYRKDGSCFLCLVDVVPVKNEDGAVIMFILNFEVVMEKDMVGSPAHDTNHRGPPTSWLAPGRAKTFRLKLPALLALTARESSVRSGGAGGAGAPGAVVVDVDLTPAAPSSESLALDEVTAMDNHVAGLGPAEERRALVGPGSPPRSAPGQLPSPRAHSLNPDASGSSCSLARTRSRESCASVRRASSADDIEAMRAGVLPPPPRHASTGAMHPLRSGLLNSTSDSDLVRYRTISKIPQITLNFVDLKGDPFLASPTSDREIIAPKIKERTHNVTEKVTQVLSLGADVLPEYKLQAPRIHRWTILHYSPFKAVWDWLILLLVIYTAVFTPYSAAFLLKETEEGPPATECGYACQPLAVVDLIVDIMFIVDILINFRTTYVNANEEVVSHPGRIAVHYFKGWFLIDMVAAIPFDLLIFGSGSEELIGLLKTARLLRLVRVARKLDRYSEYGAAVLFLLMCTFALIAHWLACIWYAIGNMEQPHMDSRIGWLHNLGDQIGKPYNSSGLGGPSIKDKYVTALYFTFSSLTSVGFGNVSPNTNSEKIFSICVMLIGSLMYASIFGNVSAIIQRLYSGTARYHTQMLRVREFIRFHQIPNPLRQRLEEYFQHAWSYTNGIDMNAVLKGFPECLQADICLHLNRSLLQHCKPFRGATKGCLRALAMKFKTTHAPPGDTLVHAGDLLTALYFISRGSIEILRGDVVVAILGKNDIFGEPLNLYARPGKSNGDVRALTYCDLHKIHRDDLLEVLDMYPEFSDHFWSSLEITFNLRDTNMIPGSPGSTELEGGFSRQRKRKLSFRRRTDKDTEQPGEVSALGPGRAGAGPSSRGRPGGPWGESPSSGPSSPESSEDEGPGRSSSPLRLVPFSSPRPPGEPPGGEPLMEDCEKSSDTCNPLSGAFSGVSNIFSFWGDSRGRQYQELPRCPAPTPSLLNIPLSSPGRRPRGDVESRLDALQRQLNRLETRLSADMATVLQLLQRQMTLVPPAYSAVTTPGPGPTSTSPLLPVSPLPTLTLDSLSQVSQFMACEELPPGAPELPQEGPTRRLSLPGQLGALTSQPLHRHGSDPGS

SMILES | hERG current change (%, negative = inhibition) at 10uM [%]
Cc1c(C(c2ccccc2Br)c2c(C)n(C)n(-c3ccccc3)c2=O)c(=O)n(-c2ccccc2)n1C | 3.71
COc1ccc(NC(=O)CCN2C(=O)NC3(CCCC3)C2=O)cc1Cl | -6.47
COC(=O)[C@H]1[C@H](C(=O)OC)[C@@H](C(=O)OC)N(c2ccc(OC)cc2)[C@@H]1C(=O)OC | 26.9
COc1ccc(CCNc2nc(N3CCCCC3)nc(N3CCCCC3)n2)cc1OC | -2.41
COc1ccccc1-c1nc2n(n1)C(c1ccc(Cl)cc1)C(C(N)=O)=C(C)N2 (stereo not shown) | -2.25
Cc1[nH]nc2c1C(c1ccc3c(c1)OCO3)C(C#N)=C(N)O2 (stereo not shown) | -5.89
CC(C)(C)NC(=S)NNC(=O)c1ccccc1Cl | 7.54
CCS(=O)(=O)N1CCCC(C(=O)NCCCN(C)Cc2ccccc2)C1 (stereo not shown) | -2.93
O=C(O)C1CCCCC1C(=O)NCCc1ccncc1 (stereo not shown) | 1.96
CCOC(=O)CC(=O)CSc1nc2c(C)c(C)ccc2cc1C | -3
CCOC(=O)NN1C(=O)c2ccccc2NC1c1cccc(O)c1 (stereo not shown) | -7.01
Cc1c(NC(=O)C(C)Sc2nc3ccccc3c(=O)n2CCO)c(=O)n(-c2ccccc2)n1C (stereo not shown) | 2.19
COc1cc(C2C(C#N)=C(N)OC3=C2C(=O)CC(C)(C)C3)cc2c1OCO2 (stereo not shown) | -36.1
COc1ccccc1N1CCN(C(=O)c2cc3sccc3n2C)CC1 | -9.8
Cc1cc(C(=O)NC2CCCCCCC2)ccc1[N+](=O)[O-] | 5.69
Cc1cc2oc(=O)cc(CN3CCN(S(=O)(=O)c4ccc5c(c4)OCCO5)CC3)c2cc1C | -6.07
O=C(NCC(c1ccco1)N1CCN(c2ccc(F)cc2)CC1)C(=O)NC1CCCCC1 (stereo not shown) | 4.73
O=C(NCc1ccccc1F)C1CCCN(S(=O)(=O)N2CCOCC2)C1 (stereo not shown) | 15.9
COc1ccc(/C=C/C(=O)NC(=S)NNC(=O)Cc2cccs2)cc1 | -4.1
CCOc1ccccc1NC(=O)C1=C(C)NC(=O)NC1c1cccs1 (stereo not shown) | -2.75
CCC(C#CCN1CCCCC1)(CC)OCCC#N | 2.57
Cc1cc(C)n2nc(C(=O)OCC(=O)N(CC(C)C)CC(C)C)nc2n1 | 15.6
Cn1c2c(c(=O)n1-c1ccccc1)CSCC2 | 16.5

SMILES | hERG current change (%, negative = inhibition) at 10uM [%]
CC(=O)c1ccc(NCC(=O)N2CCN(c3ccccc3)CC2)cc1 | -8.44
Cc1ccc(S(=O)(=O)N2CCC(C)CC2)cc1 | -4.14
Cc1nn(-c2ccccc2)c(C)c1NC(=O)COC(=O)c1ccccc1 | 5.7
CCOC(=O)c1ccccc1NS(=O)(=O)c1c(C)nc2sccn2c1=O | -13
CCC1(C)Cc2c(sc3nc4n(c(=O)c23)CCS4)CO1 (stereo not shown) | -9.38
COc1cccc(NC(=O)COc2cccc3c2CCNC3=O)c1 | -10.7
O=C1CN=C(c2ccccc2F)c2cc(Cl)ccc2N1 | -8.19
O=C(NC1CCCCC1)NC1CCN(S(=O)(=O)Cc2ccccc2)CC1 | -0.483
OCCNC(=S)NCCc1ccccc1 | 13.4
COc1ccc(OC)c(N(CC(=O)N2CCCC2)S(=O)(=O)c2ccccc2)c1 | 14.9
CNC(=S)N/N=C/c1cn(Cc2c(F)cccc2Cl)c2ccccc12 | 6.2
COc1ccc2c(c1)c1nc3ccccc3nc1n2Cc1ccc(OC(C)C)c(OC)c1 | -0.905
CCc1ccc(OCC(=O)Nc2ccc(-c3cc4ccccc4oc3=O)c(OC)c2)cc1 | 1.91
CC(C)c1ccc(/C=C/C(=O)N2CCc3ccccc3C2)cc1 | 3.46
COc1cccc(OC)c1C(=O)OCC(=O)N(c1ccccc1)C1CCCCC1 | -4.4
CCOC(=O)N1CCN(C(=O)c2ccc3c(=O)n(CCOC)c(=O)[nH]c3c2)CC1 | 25.8
Nc1nnc(SCC(=O)N2CCN(Cc3ccccc3)CC2)s1 | 4.16
COc1ccccc1CC(=O)NCC(c1ccco1)N1CCCCC1 (stereo not shown) | 8.83
CCc1c(O)c(-c2ccccc2)c(=O)n(-c2ccccn2)c1-c1ccccc1 | 9.7
CC1CC(C)CN(C(=O)c2ccc(CSc3nc4ccncc4[nH]3)cc2)C1 (stereo not shown) | -8.69
Fc1ccccc1/C=N/NC(=S)Nc1ccc(Cl)cc1Cl | 8.62
Cl.N=C(N)Sc1nc(N2CCCCC2)nc(N2CCCCC2)n1 | 16.7
CC(Oc1cccc(Cl)c1)C(=O)Nc1ccc([N+](=O)[O-])cn1 (stereo not shown) | -62.2

Source: article PMC4336329 (PLoS ONE, 2015)
